Laboratory results: US5023236A, “Factor VII/VIIA active site inhibitors” (Corvas, Inc., priority 1989, dated 1991)
Part of at least one peptide drawing is inferred or uncertain, most often the ends. Non-standard residues stand in square brackets, D forms with d. Residues, ends and D or L forms follow the SMILES beside them. *: point of attachment. Dansyl = CN(C)c1cccc2c(S(=O)(=O)*)cccc12; Tos = Cc1ccc(S(=O)(=O)*)cc1; CH2Cl = ClC*

Legend:
[1] = biological target: T1, factor VII/VIIa in the binary complex with tissue factor (Homo sapiens, UniProt P08709); experiment: linked enzyme chromogenic assay of factor X activation (S2222) with factor VII and TF positive J82 cells; type: biochemical; conditions: for inhibitory activity compared with L-Leu-L-Thr-L-Arg-CMK (in words): modification at Z, P2 or P3 of L-Leu-L-Thr-L-Arg-CMK
T1 construct: purified human factor VII (1 nM), purified as described by Fair, D; from tissue; TF endogenous on J82 cells (ATCC HTB1)
T1 sequence (P08709 213-466 limits assumed): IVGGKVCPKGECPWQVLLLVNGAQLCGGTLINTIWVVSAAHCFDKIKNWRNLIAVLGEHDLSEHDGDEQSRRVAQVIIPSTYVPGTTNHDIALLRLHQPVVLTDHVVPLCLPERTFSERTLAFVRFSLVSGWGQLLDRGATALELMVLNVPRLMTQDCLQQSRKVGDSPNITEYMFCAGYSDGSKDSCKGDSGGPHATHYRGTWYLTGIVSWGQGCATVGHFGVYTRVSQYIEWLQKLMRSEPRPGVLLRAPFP
T1 sequence (P08709 61-212 partner limits assumed): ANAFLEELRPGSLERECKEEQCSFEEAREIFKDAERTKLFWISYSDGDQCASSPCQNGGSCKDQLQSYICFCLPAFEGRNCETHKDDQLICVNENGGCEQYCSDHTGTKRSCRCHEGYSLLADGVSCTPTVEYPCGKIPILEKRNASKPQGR
T1 sequence (P13726 33-295 partner): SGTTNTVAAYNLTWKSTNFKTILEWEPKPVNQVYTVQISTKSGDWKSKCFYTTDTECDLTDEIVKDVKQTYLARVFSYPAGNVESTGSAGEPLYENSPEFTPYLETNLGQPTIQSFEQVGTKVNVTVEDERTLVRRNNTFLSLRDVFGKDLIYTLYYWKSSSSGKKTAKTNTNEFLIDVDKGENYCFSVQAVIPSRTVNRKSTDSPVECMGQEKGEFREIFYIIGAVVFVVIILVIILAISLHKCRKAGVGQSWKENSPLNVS
Experimental: Relative potency is expressed as megaunits (MU), where one unit is equal
to the inverse of the molar concentration at 5% inhibition of factor X
activation. Quantitation of inhibition of factor VII/VIIa in the binary
complex with tissue factor was performed in a linked enzyme chromogenic
assay using factor X, purified as described by Schwartz, B. S. et al.
(1981) J. Clin. Invest. 67:1650, and the chromogenic substrate S2222
(Helena Labs, Beaumont, Texa s). Briefly, the peptides were preincubated
with purified human factor VII (1 nM), purified as described by Fair, D.
incubation at room temperature 25 μl of 20 mM CaCl2, 1 ×
10^5 TF positive human bladder carcinoma derived J82 cells (available
from American Type Culture Collection, Rockville, Maryland, under
Accession No. ATCC HTB1), 25 μl of purified human factor human factor
(100 .eta.M) in 50 μl of TRIS buffered saline and 50 μl of 2 mM
S2222 was added. The use of J82 cells is an important feature of these in
vitro assays because they produce significant levels of TF for the
formation of active TF:VII/VIIa. The rate of conversion of factor X to Xa
was monitored kinetically by determination of the chromogenic product of
Inhibition by the compounds of this invention of the proteolytic activity of [TF:VII/VIIa] on factor X was analyzed by a chromogenic assay in which the substrate S-2222 is cleaved by the generated factor Xa. […] Analyses included the absence of effect of all such compounds on factor Xa, an enzyme closely homologous to factor VII and VIIa. […]

[TF:VII/VIIa] complex = biological target: T2, [TF:VII/VIIa] complex (Homo sapiens, UniProt P08709); experiment: clotting inhibition of normal human plasma with J82 cells; type: biochemical; conditions: for [TF:VII/VIIa] Activity (mU): calculated from clotting time, 1000 mU = 50 s
T2 construct: from tissue; host or cells: normal human plasma (factor VII); J82 cells (endogenous TF)
T2 sequence (P08709 213-466 limits assumed): as the sequence (P08709 213-466 limits assumed) above
T2 sequence (P08709 61-212 partner limits assumed): as the sequence (P08709 61-212 partner limits assumed) above
T2 sequence (P13726 33-295 partner): as the sequence (P13726 33-295 partner) above
Experimental: Normal human plasma was diluted 1:3 by volume with 0.02 M Na Citrate, 0.14M NaCl pH 7.4 in a glass tube. Diluted plasma (100μl) was then mixed with 100μl of J82 cells at 1×10^6 cells/ml and 100 μl of inhibitor. Plasma clotting times were obtained by visual observation of initial turbidity following addition of 100 μl of 20 mM calcium chloride. Human plasma clotting times were also expressed as calculated milli-units of TF activity (assuming no inhibitor present).

C[C@@H](O)[C@H](NC(=O)[C@H](N)Cc1ccccc1)C(=O)N[C@@H](CCCNC(=N)N)C(=O)CCl [Example 16, H-D-Phe-L-Thr-L-Arg-CMK] (H-[dF]-Thr-Arg-CH2Cl)
decrease of activity when D-leucine is replaced in the P3 position ([1]; compared with D-Leu-L-Thr-L-Arg-CMK): more than 50%

CC(C)C[C@H](N)C(=O)N1CCC[C@H]1C(=O)N[C@@H](CCCNC(=N)N)C(=O)CCl [Example 21, H-L-Leu-L-Pro-L-Arg-CMK] (H-Leu-Pro-Arg-CH2Cl)
inhibitory activity compared with L-Leu-L-Thr-L-Arg-CMK (in words) [1]: without significant loss of inhibitory activity

Cc1ccc(S(=O)(=O)N[C@@H](CC(C)C)C(=O)N[C@H](C(=O)N[C@@H](CCCNC(=N)N)C(=O)CCl)[C@@H](C)O)cc1 [Example 18, Tosyl-L-Leu-L-Thr-L-Arg-CMK] (Tos-Leu-Thr-Arg-CH2Cl)
inhibitory activity compared with L-Leu-L-Thr-L-Arg-CMK (in words) [1]: without significant loss of biological activity

CC(C)C[C@H](N)C(=O)N[C@@H](CO)C(=O)N[C@@H](CCCNC(=N)N)C(=O)CCl [Example 20, H-L-Leu-L-Ser-L-Arg-CMK] (H-Leu-Ser-Arg-CH2Cl)
inhibitory activity compared with L-Leu-L-Thr-L-Arg-CMK (in words) [1]: without significant loss of inhibitory activity

CC(C)C[C@H](N)C(=O)N[C@H](C(=O)N[C@@H](CCCNC(=N)N)C(=O)CCl)[C@@H](C)O [Example 11, H-L-Leu-L-Thr-L-Arg-CMK] (H-Leu-Thr-Arg-CH2Cl)
Human Plasma Clotting Time ([TF:VII/VIIa] complex; LTR-CMK final conc 3 μM): 93 s
[TF:VII/VIIa] Activity (mU) ([TF:VII/VIIa] complex; LTR-CMK final conc 3 μM): 40.9 mU
Human Plasma Clotting Time ([TF:VII/VIIa] complex; LTR-CMK final conc 30 μM): 102 s
[TF:VII/VIIa] Activity (mU) ([TF:VII/VIIa] complex; LTR-CMK final conc 30 μM): 25.4 mU
Human Plasma Clotting Time ([TF:VII/VIIa] complex; LTR-CMK final conc 300 μM): 120 s
[TF:VII/VIIa] Activity (mU) ([TF:VII/VIIa] complex; LTR-CMK final conc 300 μM): 11.0 mU
inhibition of the proteolytic activation of clotting (in words) ([TF:VII/VIIa] complex; normal human plasma, J82 cells): effective inhibitor

CC(C)C[C@H](NS(=O)(=O)c1cccc2c(N(C)C)cccc12)C(=O)N[C@H](C(=O)N[C@@H](CCCNC(=N)N)C(=O)CCl)[C@@H](C)O [Example 19, Dansyl-L-Leu-L-Thr-L-Arg-CMK] (Dansyl-Leu-Thr-Arg-CH2Cl)
inhibitory activity compared with L-Leu-L-Thr-L-Arg-CMK (in words) [1]: decreased biological activity

CC(=O)N[C@@H](CC(C)C)C(=O)N[C@H](C(=O)N[C@@H](CCCNC(=N)N)C(=O)CCl)[C@@H](C)O [Example 17, Ac-L-Leu-L-Thr-L-Arg-CMK] (Ac-Leu-Thr-Arg-CH2Cl)
inhibitory activity compared with L-Leu-L-Thr-L-Arg-CMK (in words) [1]: without significant loss of biological activity

CC(C)C[C@@H](N)C(=O)N[C@H](C(=O)N[C@@H](CCCNC(=N)N)C(=O)CCl)[C@@H](C)O [Example 15, H-D-Leu-L-Thr-L-Arg-CMK] (H-[dL]-Thr-Arg-CH2Cl)
inhibitory activity compared with L-Leu-L-Thr-L-Arg-CMK (in words) [1]: significantly enhanced
